# Some of the results follow. Many values rest on one well or one pass, so single values are uncertain.
# Tested on: WM1716
# Assay: cell count relative to DMSO control; melanoma cells; higher = more viable cells
# Conditions: library dose: low library concentration; 72 h
# 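Further: cell number obtained by counting DAPI-stained nuclei in high-throughput microscope images with image analysis software, screen run in 1,536-well plates.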
row,Compound,cell count
1,"C[C@]12O[C@H](C[C@]1(O)CO)n1c3ccccc3c3c4c(c5c6ccccc6n2c5c31)CNC4=O [Lestaurtinib] + O=C(Nc1cccc(Cl)c1)Nc1ncc(CCNc2ncnc3ccsc23)s1 [SNS314] (first compound 0.004 µM, partner dose 0.0008 µM)",118%
2,"C[C@]12O[C@H](C[C@]1(O)CO)n1c3ccccc3c3c4c(c5c6ccccc6n2c5c31)CNC4=O [Lestaurtinib] + Cc1cc(SCc2sc(-c3ccc(C(F)(F)F)c(F)c3)nc2C)ccc1OCC(=O)O [GW0742] (first compound 0.004 µM, partner dose 2 µM)",105%
3,"N.N.[Cl][Pt][Cl] [cisplatin] + C=CCNC1=C2C[C@@H](C)C[C@H](OC)[C@H](O)[C@@H](C)/C=C(\C)[C@H](OC(N)=O)[C@@H](OC)/C=C\C=C(/C)C(=O)NC(=CC1=O)C2=O [Tanespimycin] (first compound 1.6 µM, partner dose 0.002 µM)",99%
4,"C[As](C)SC[C@H](NC(=O)CC[C@H](N)C(=O)O)C(=O)NCC(=O)O [Darinaparsin] + Cn1c(Nc2ccc(C(F)(F)F)cc2)nc2cc(Oc3ccnc(-c4ncc(C(F)(F)F)[nH]4)c3)ccc21 [CHIR265] (first compound 0.4 µM, partner dose 0.08 µM)",85.3%
5,"C[C@]12O[C@H](C[C@]1(O)CO)n1c3ccccc3c3c4c(c5c6ccccc6n2c5c31)CNC4=O [Lestaurtinib] + COc1ccc(-c2ccc3c(N4CCOCC4)nc(N4C[C@@H](C)O[C@@H](C)C4)nc3n2)cc1CO [KU0063794] (first compound 0.004 µM, partner dose 0.02 µM)",102%
6,"C[C@]12O[C@H](C[C@]1(O)CO)n1c3ccccc3c3c4c(c5c6ccccc6n2c5c31)CNC4=O [Lestaurtinib] + c1cc(-c2cnn3cc(-c4ccc(OCCN5CCCCC5)cc4)cnc23)ccn1 [Dorsomorphin] (first compound 0.004 µM, partner dose 0.4 µM)",104%
7,"C[As](C)SC[C@H](NC(=O)CC[C@H](N)C(=O)O)C(=O)NCC(=O)O [Darinaparsin] + Cc1ccc(NC(=O)c2cccc(N(C)C)c2)cc1NC(=O)c1ccc(O)cc1 [ZM336372] (first compound 0.4 µM, partner dose 2 µM)",114%
8,"C[C@]12O[C@H](C[C@]1(O)CO)n1c3ccccc3c3c4c(c5c6ccccc6n2c5c31)CNC4=O [Lestaurtinib] + CN(c1ncccc1CNc1nc(Nc2ccc3c(c2)CC(=O)N3)ncc1C(F)(F)F)S(C)(=O)=O [PF562271] (first compound 0.004 µM, partner dose 0.08 µM)",95.2%
9,"C[As](C)SC[C@H](NC(=O)CC[C@H](N)C(=O)O)C(=O)NCC(=O)O [Darinaparsin] + Cc1cc(SCc2sc(-c3ccc(C(F)(F)F)c(F)c3)nc2C)ccc1OCC(=O)O [GW0742] (first compound 0.4 µM, partner dose 2 µM)",98%
10,"C[C@]12O[C@H](C[C@]1(O)CO)n1c3ccccc3c3c4c(c5c6ccccc6n2c5c31)CNC4=O [Lestaurtinib] + CC(=O)c1c(C)c2cnc(Nc3ccc(N4CCNCC4)cn3)nc2n(C2CCCC2)c1=O [palbociclib] (first compound 0.004 µM, partner dose 0.04 µM)",77.3%
11,"N.N.[Cl][Pt][Cl] [cisplatin] + Cc1nc(Nc2ncc(C(=O)Nc3c(C)cccc3Cl)s2)cc(N2CCN(CCO)CC2)n1 [dasatanib] (first compound 1.6 µM, partner dose 0.004 µM)",96.4%
12,"Cn1cc(C2=C(c3cn(C4CCN(Cc5ccccn5)CC4)c4ccccc34)C(=O)NC2=O)c2ccccc21 [Enzastaurin] + O=C(O)c1ccc(-c2c[nH]c3ncc(-c4ccccc4)cc23)cc1C1CCCC1 [GSK650394] (first compound 0.8 µM, partner dose 0.16 µM)",85.5%

# Tested on: WM1745
# Assay: as above
# Conditions: library dose: low library concentration; 72 h
row,Compound,cell count
1,"C[C@]12O[C@H](C[C@]1(O)CO)n1c3ccccc3c3c4c(c5c6ccccc6n2c5c31)CNC4=O [Lestaurtinib] + O=C(Oc1ccc([N+](=O)[O-])cc1)N1CCC(C(O)(c2ccc3c(c2)OCO3)c2ccc3c(c2)OCO3)CC1 [JZL184] (first compound 0.004 µM, partner dose 1 µM)",93.9%
2,"C[As](C)SC[C@H](NC(=O)CC[C@H](N)C(=O)O)C(=O)NCC(=O)O [Darinaparsin] + Cc1cc([N+](=O)[O-])ccc1NS(=O)(=O)c1cc(Cl)ccc1Cl [FH535] (first compound 0.4 µM, partner dose 1 µM)",90.6%
3,"C[C@]12O[C@H](C[C@]1(O)CO)n1c3ccccc3c3c4c(c5c6ccccc6n2c5c31)CNC4=O [Lestaurtinib] + CN(C)S(=O)(=O)c1ccc2c(c1)/C(=C/c1cc3c([nH]1)CCCC3)C(=O)N2 [SU6656] (first compound 0.004 µM, partner dose 0.4 µM)",83%
4,"Cn1cc(C2=C(c3cn(C4CCN(Cc5ccccn5)CC4)c4ccccc34)C(=O)NC2=O)c2ccccc21 [Enzastaurin] + CNC(=O)c1cc(Oc2ccc(NC(=O)Nc3ccc(Cl)c(C(F)(F)F)c3)cc2)ccn1 [sorafenib] (first compound 0.8 µM, partner dose 0.4 µM)",96.3%
5,"C[C@]12O[C@H](C[C@]1(O)CO)n1c3ccccc3c3c4c(c5c6ccccc6n2c5c31)CNC4=O [Lestaurtinib] + CCCCCCCCCCCC1=C(O)C(=O)C=C(O)C1=O [Embelin] (first compound 0.004 µM, partner dose 1.2 µM)",95.1%
6,"C[C@]12O[C@H](C[C@]1(O)CO)n1c3ccccc3c3c4c(c5c6ccccc6n2c5c31)CNC4=O [Lestaurtinib] + CCc1ccc(CCOc2ccc(CC3SC(=O)NC3=O)cc2)nc1 [pioglitazone] (first compound 0.004 µM, partner dose 2 µM)",92%
7,"Cn1cc(C2=C(c3cn(C4CCN(Cc5ccccn5)CC4)c4ccccc34)C(=O)NC2=O)c2ccccc21 [Enzastaurin] + CC1(C)NC(=O)N(c2ccc([N+](=O)[O-])c(C(F)(F)F)c2)C1=O [nilutamide] (first compound 0.8 µM, partner dose 1 µM)",79.9%
8,"N.N.[Cl][Pt][Cl] [cisplatin] + COc1cc(Nc2ncc(F)c(Nc3ccc4c(n3)NC(=O)C(C)(C)O4)n2)cc(OC)c1OC [Tamatinib] (first compound 1.6 µM, partner dose 0.4 µM)",70.4%
9,"C[C@]12O[C@H](C[C@]1(O)CO)n1c3ccccc3c3c4c(c5c6ccccc6n2c5c31)CNC4=O [Lestaurtinib] + O=C(O)c1ccc(-c2c[nH]c3ncc(-c4ccccc4)cc23)cc1C1CCCC1 [GSK650394] (first compound 0.004 µM, partner dose 0.16 µM)",84.9%
10,"Cn1cc(C2=C(c3cn(C4CCN(Cc5ccccn5)CC4)c4ccccc34)C(=O)NC2=O)c2ccccc21 [Enzastaurin] + NC(=O)Nc1cc(-c2cccc(F)c2)sc1C(=O)N[C@H]1CCCNC1 [AZD7762] (first compound 0.8 µM, partner dose 0.02 µM)",105%
11,"Cn1cc(C2=C(c3cn(C4CCN(Cc5ccccn5)CC4)c4ccccc34)C(=O)NC2=O)c2ccccc21 [Enzastaurin] + COc1ccc2c(c1)CCC1C2CCC2(C)C(NCCCCCCN3C(=O)C=CC3=O)CCC12 [U73122] (first compound 0.8 µM, partner dose 0.4 µM)",98.9%
12,"C[As](C)SC[C@H](NC(=O)CC[C@H](N)C(=O)O)C(=O)NCC(=O)O [Darinaparsin] + c1cc(-c2cnn3cc(-c4ccc(OCCN5CCCCC5)cc4)cnc23)ccn1 [Dorsomorphin] (first compound 0.4 µM, partner dose 0.4 µM)",75.3%
13,"N.N.[Cl][Pt][Cl] [cisplatin] + COC(=O)c1sccc1S(=O)(=O)Nc1ccc(Nc2ccccc2)cc1OC [GSK0660] (first compound 1.6 µM, partner dose 1 µM)",102%
14,"C[As](C)SC[C@H](NC(=O)CC[C@H](N)C(=O)O)C(=O)NCC(=O)O [Darinaparsin] + Cc1nc(Nc2ncc(C(=O)Nc3c(C)cccc3Cl)s2)cc(N2CCN(CCO)CC2)n1 [dasatanib] (first compound 0.4 µM, partner dose 0.004 µM)",68.3%
15,"Cn1cc(C2=C(c3cn(C4CCN(Cc5ccccn5)CC4)c4ccccc34)C(=O)NC2=O)c2ccccc21 [Enzastaurin] + Cn1c(=O)n(-c2ccc(C(C)(C)C#N)cc2)c2c3cc(-c4cnc5ccccc5c4)ccc3ncc21 [NVP-BEZ235] (first compound 0.8 µM, partner dose 0.004 µM)",107%
16,"Cn1cc(C2=C(c3cn(C4CCN(Cc5ccccn5)CC4)c4ccccc34)C(=O)NC2=O)c2ccccc21 [Enzastaurin] + C=CCNC1=C2C[C@@H](C)C[C@H](OC)[C@H](O)[C@@H](C)/C=C(\C)[C@H](OC(N)=O)[C@@H](OC)/C=C\C=C(/C)C(=O)NC(=CC1=O)C2=O [Tanespimycin] (first compound 0.8 µM, partner dose 0.002 µM)",92.2%
17,"Cn1cc(C2=C(c3cn(C4CCN(Cc5ccccn5)CC4)c4ccccc34)C(=O)NC2=O)c2ccccc21 [Enzastaurin] + Cn1nnc2c(C(N)=O)ncn2c1=O [temozolomide] (first compound 0.8 µM, partner dose 2 µM)",81%
